Among all 310,000 compounds or so, about 14,000 (4.5%) showed an effect of 50% or more. Effects have a minus sign here. The list shows a part of the results.
These compounds were tested against human ether-à-go-go-related gene (hERG) potassium channel (human, UniProt Q12809) (assay: primary screen, population patch clamp on CHO cells stably expressing hERG).
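Note: peak tail current of the secondary pulse compared with the same well before compound.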

Chain of human ether-à-go-go-related gene (hERG) potassium channel (Q12809 whole entry, looked up): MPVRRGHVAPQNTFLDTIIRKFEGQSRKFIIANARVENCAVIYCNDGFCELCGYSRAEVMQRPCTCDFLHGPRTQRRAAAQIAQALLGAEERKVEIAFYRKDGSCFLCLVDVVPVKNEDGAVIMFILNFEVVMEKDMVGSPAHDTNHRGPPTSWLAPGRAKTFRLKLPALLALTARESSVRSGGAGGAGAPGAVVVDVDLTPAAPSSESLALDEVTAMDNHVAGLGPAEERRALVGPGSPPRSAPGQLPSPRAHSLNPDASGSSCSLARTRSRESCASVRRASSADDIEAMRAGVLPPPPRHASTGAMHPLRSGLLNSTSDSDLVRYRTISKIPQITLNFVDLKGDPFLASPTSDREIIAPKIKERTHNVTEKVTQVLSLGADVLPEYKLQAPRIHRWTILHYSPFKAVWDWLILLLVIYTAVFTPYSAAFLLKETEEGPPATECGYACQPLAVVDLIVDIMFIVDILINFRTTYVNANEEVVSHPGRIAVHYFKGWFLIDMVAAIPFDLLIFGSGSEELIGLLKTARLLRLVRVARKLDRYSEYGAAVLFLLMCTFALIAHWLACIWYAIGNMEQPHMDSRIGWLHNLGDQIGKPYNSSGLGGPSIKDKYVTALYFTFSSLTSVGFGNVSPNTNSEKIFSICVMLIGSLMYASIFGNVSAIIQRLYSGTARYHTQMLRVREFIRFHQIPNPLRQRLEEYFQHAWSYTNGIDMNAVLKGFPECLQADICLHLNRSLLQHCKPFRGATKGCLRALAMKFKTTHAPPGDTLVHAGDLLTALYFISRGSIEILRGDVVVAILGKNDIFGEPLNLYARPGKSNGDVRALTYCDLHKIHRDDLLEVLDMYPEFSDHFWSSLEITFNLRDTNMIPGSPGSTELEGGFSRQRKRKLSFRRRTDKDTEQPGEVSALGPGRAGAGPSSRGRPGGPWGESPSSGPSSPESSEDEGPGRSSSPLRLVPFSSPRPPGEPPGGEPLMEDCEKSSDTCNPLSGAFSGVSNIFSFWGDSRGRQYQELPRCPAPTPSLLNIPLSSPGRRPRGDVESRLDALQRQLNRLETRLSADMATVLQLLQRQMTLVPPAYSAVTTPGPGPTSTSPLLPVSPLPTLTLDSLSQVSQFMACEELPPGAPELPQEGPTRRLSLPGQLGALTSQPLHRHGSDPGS

| SMILES | hERG current change (%, negative = inhibition) at 10uM |
| --- | --- |
| Cc1cc(NC(=O)CN2CCOCC2)n(-c2nc3ccccc3s2)n1 | 10.6% |
| COc1ccc(CC(=O)c2ccc(OC)c(OC)c2C)cc1OC | -15.7% |
| CC1CCCCC1NC(=O)CCNS(=O)(=O)c1ccc2c(c1)CCC(=O)N2 (stereo not drawn) | 6.25% |
| O=C(COc1ccccc1)OCC(=O)c1c[nH]c2ccccc12 | -0.439% |
| Cc1ccc(-c2nc(CN3CCN(C(=O)C4CCCO4)CC3)cs2)cc1 (stereo not drawn) | -1.49% |
| Cc1ccc(N=C2CSC(=O)N2)cc1 | 20.9% |
| CC12CCC(C(=O)NCCCn3ccnc3)(OC1=O)C2(C)C (stereo not drawn) | 12.7% |
| COc1ccc(S(=O)(=O)N(CC(=O)NCCCN(C)C)c2ccc(C)cc2)cc1OC | -56.6% |
| O=C(c1cn[nH]c1)N1CCc2c([nH]c3ccccc23)C1c1c(F)cccc1Cl (stereo not drawn) | -6.01% |
| COc1ccc(NC(=O)c2cc3c(Cl)nc4ccccc4c3s2)c(OC)c1 | -1.31% |
| CCOC(=O)C(=CNc1ccc2c(c1)c1ccccc1n2CC)C(=O)OCC | 20.5% |
| Cc1ccccc1-c1nc(CN2CCC(C(=O)NCCCN3CCOCC3)CC2)c(C)o1 | -10.8% |
| O=C(O)c1ccc(-c2sc(Nc3ccccc3)n[n+]2-c2ccccc2)cc1.[Cl-] | 6.22% |
| O=C(COc1ccc(C(=O)NCCN2CCOCC2)cc1)Nc1cccc(C(F)(F)F)c1 | -14.7% |
| O=C(CSCc1cc(=O)n2nc(C3CC3)sc2n1)Nc1ccccc1Cl | 3.48% |
| O=C(NCc1ccco1)C1CCCN(S(=O)(=O)c2ccccc2)C1 (stereo not drawn) | -1.99% |
| O=C(Oc1ccc(C(=S)N2CCOCC2)cc1Cl)c1ccccc1F | 7.84% |
| Cc1ccc(OCCn2cc(C(=O)O)c3ccccc32)cc1 | -2.89% |
| O=C(O)c1c[nH]c(=S)n1-c1ccc(F)cc1 | 30.5% |
| CC(C)CNC(=O)CN(C1CCCCC1)S(C)(=O)=O | -24% |
| c1ccc(-c2ccc(-c3nc(-c4ccccn4)no3)cc2)cc1 | 12.6% |
| COc1ccc(Cl)cc1NC(=O)CN1CCN(S(=O)(=O)N2CCC(C)CC2)CC1 | -32.1% |
| O=C(COC(=O)CNS(=O)(=O)c1cccc(Br)c1)NC(=O)Nc1ccc2c(c1)OCCO2 | 36.9% |
| COc1cccc(C(=O)N(Cc2ccc3c(c2)OCO3)Cc2nc3ccccc3c(=O)[nH]2)c1 | -10.8% |

Reference: paper PMC4336329 (PLoS ONE, 2015)
